18 molecules from patent US8927717B1, “Thiochromeno[2,3-c]quinolin-12-one derivatives, preparation method and application thereof” (National Defense Medical Center, priority 2014, dated 2015) can be followed below.

This assay relates to NCI-H322M. In kind it is cell-based. Particulars: for GI50 / CC50: Homo sapiens; for GI50 / CC50 / TGI / Growth percent: NCI-H322M; for GI50 / CC50 / TGI: five dose; for CC50: read-out: LC50 (the source's name); for Growth percent NCI-H322M: Non-small cell lung cancer, 48 hours, SRB; for Growth percent NCI-H322M / Growth percent: 10^−5 molar.

With `NCCNc1nc2ccccc2c2c(=O)c3cc(Cl)ccc3sc12` [Compound N14, 6-((2-Aminoethyl)amino)-10-chloro-12H-thiochromeno[2,3-c]quinolin-12-one], halving of growth (GI50) required 1.65 µM, the CC50 came to 6.74 µM, the TGI is 3.34 µM and the “Growth percent NCI-H322M” value is on record as −50.28%.

Turning to `O=c1c2cc(Cl)ccc2sc2c(NCCCNCCO)nc3ccccc3c12` [Compound N19, 10-Chloro-6-((3-((2-hydroxyethyl)amino)propyl)amino)-12H-thiochromeno[2,3-c]quinolin-12-one], the GI50 was determined as 1.8 µM, the CC50 was found to be 7.03 µM, the Growth percent was determined as 10.05% and the TGI came out at 3.56 µM.

For `O=c1c2cc(Cl)ccc2sc2c(NCCO)nc3ccccc3c12` [Compound N9, 10-Chloro-6-(2-ethanolamino)-12H-thiochromeno[2,3-c]quinolin-12-one], the “Growth percent NCI-H322M” value came out at 79.00%.

As for `CCC(CC)Nc1nc2ccccc2c2c(=O)c3cc(Cl)ccc3sc12` [Compound N6, 10-Chloro-6-(pentan-3-ylamino)-12H-thiochromeno[2,3-c]quinolin-12-one], the “Growth percent NCI-H322M” value came out at 92.45%.

On to `O=c1c2cc(Cl)ccc2sc2c(N3CCN(Cc4ccccc4)CC3)nc3ccccc3c12` [Compound 11, 6-(4-Benzylpiperazin-1-yl)-10-chloro-12H-thiochromeno[2,3-c]quinolin-12-one], for which the “Growth percent NCI-H322M” value is recorded as 88.92%.

`CCC(CO)Nc1nc2ccccc2c2c(=O)c3cc(Cl)ccc3sc12` (stereo not drawn) [Compound N12, 10-Chloro-6-((1-hydroxybutan-2-yl)amino)-12H-thiochromeno[2,3-c]quinolin-12-one]: the “Growth percent NCI-H322M” value turned out to be 58.98%.

On to `CCNc1nc2ccccc2c2c(=O)c3cc(Cl)ccc3sc12` [Compound N2, 10-Chloro-6-ethylamino-12H-thiochromeno[2,3-c]quinolin-12-one], for which growth was halved (GI50) at 69.5 µM, the CC50 was above 100 µM, the TGI is above 100 µM and the “Growth percent NCI-H322M” value came out at 74.88%.

For the molecule `CN(C)CCCNc1nc2ccccc2c2c(=O)c3cc(Cl)ccc3sc12` [Compound N17, 10-Chloro-6-((3-(dimethylamino)propyl)amino)-12H-thiochromeno[2,3-c]quinolin-12-one], the Growth percent is on record as 82.29%.

Turning to `COc1ccc(CCNc2nc3ccccc3c3c(=O)c4cc(Cl)ccc4sc23)cc1` [Compound N31, 10-Chloro-6-((4-methoxyphenethyl)amino)-12H-thiochromeno[2,3-c]quinolin-12-one], the Growth percent came out at 99.19%.

The molecule `O=c1c2cc(Cl)ccc2sc2c(NC3CCCCC3)nc3ccccc3c12` [Compound N21, 10-Chloro-6-(cyclohexylamino)-12H-thiochromeno[2,3-c]quinolin-12-one] yielded a Growth percent of 91.10%.

As to `CN(C)CCNc1nc2ccccc2c2c(=O)c3cc(Cl)ccc3sc12` [Compound N7, 10-Chloro-6-((2-(dimethylamino)ethyl)amino)-12H-thiochromeno[2,3-c]quinolin-12-one], growth was halved (GI50) at 1.74 µM, the CC50 stood at 5.81 µM, the TGI came to 3.18 µM and the “Growth percent NCI-H322M” value stood at 49.16%.

`O=c1c2cc(Cl)ccc2sc2c(NCc3ccc4c(c3)OCO4)nc3ccccc3c12` [Compound N27, 6-((Benzo[d][1,3]dioxol-5-ylmethyl)amino)-10-chloro-12H-thiochromeno[2,3-c]quinolin-12-one] gave a Growth percent of 73.65%.

Molecule `O=c1c2cc(Cl)ccc2sc2c(NCCc3ccccc3)nc3ccccc3c12` [Compound N30, 10-Chloro-6-(phenethylamino)-12H-thiochromeno[2,3-c]quinolin-12-one] had a Growth percent of 117.72%.

Take `O=c1c2cc(Cl)ccc2sc2c(NCCN3CCOCC3)nc3ccccc3c12` [Compound N16, 10-Chloro-6-((2-morpholinoethyl)amino)-12H-thiochromeno[2,3-c]quinolin-12-one]: the Growth percent came out at 76.96%.

`CC(C)CC(C)Nc1nc2ccccc2c2c(=O)c3cc(Cl)ccc3sc12` (stereo not drawn) [Compound N13, 10-Chloro-6-((4-methylpentan-2-yl)amino)-12H-thiochromeno[2,3-c]quinolin-12-one]: the “Growth percent NCI-H322M” value turned out to be 85.51%.

Turning to `O=c1c2ccc(Cl)cc2sc2c(Cl)nc3ccccc3c12` [Compound 3, 6,9-Dichloro-12H-thiochromeno[2,3-c]quinolin-12-one], the “Growth percent NCI-H322M” value was 100.12%.

With `CNc1nc2ccccc2c2c(=O)c3cc(Cl)ccc3sc12` [Compound N1, 10-Chloro-6-methylamino-12H-thiochromeno[2,3-c]quinolin-12-one], the “Growth percent NCI-H322M” value came out at 60.89%.

As for `O=c1c2cc(Cl)ccc2sc2c(NCc3ccccc3)nc3ccccc3c12` [Compound N25, 6-(Benzylamino)-10-chloro-12H-thiochromeno[2,3-c]quinolin-12-one], the GI50 is above 100 µM, the CC50 is above 100 µM, the Growth percent worked out at 91.00% and the TGI was above 100 µM.

For orientation: GI50 means the concentration that inhibits growth by half. The TGI is the concentration giving total growth inhibition.
